According to the supplement of paper PMC12632987:
In all, about 4,500 sequences were measured (“median log2 fold change of GCK-ALFA target abundance (FLAG IP / Myc IP barcode read proportion)”: median about 0.078, lowest 2% from about -0.6 on). Some of the results follow.

B1: GBRAP_139_3714 (protein)
chain: SHREELIEEARRIVREHRDDLEKLAEELAKLIAEADDENALAIARAAAEEMKDWSWEKWEKFIELLEKELKKLGFSEDDVLAIVGEMEAVYAKHELAKLE
B2: GBRAP_11_2897 (protein)
chain: EKEKLKEAAKLAEEAAALLEKLIKEGPDNEELRKKAEKALKELLELAKKYLDESDVELAENALELFKKAQEDPENAEEYLKQALAYVRVLAGQVLLRIEE
B3: GBRAP_11_2621 (protein)
chain: KKEILKKAAKLAEEAAKLAKKLLEEGVDNEELLEKLKKKLEELAKLTKEHFEPSEQKDVEIAKELFEESLKDKENAEKYMEELLASLRVLEGNYLLKIEE
B4: GBRAP_184_5047 (protein)
chain: KTFEETIRFSTLAELEAQLAALAERLKDFKGDLILLAEAEEFTPEMVETAVAALAAIKAAGYVTSVTLGLDGKMTEEVRDLAIELADRAGIKVVLALEEE
B5: GBRAP_160_4736 (protein)
chain: SEEIKKLVEEGKKELLEAVELSEDLSPEERAALFRGTAGEVLMDFIEDERMTDEMEDAAAEILDELVERLEAARDASLEEKKKIVEEMMERLEKELLKIA
B6: GBRAP_52_5989 (protein)
chain: MEEKAKKLAEELVKLMLEGKREEAEKKIKELVATLSEEELELIMKELAEMAKTADEEEIDAIVEIALMLGDAALEAGFDEAKVDDQIARVAAAAVEALKK
B7: GBRAP_139_3760 (protein)
chain: SKKEELEKLANETVEAAKNGDIEKIEKIAKEISKLSEEEIKEYIKILSEKSLSLTLEEIETIEEIITKTLLELRNNEDLATYAEGEFNGTLALVAYREEL
B8: GBRAP_184_5149 (protein)
chain: MTLRRSIDAKTVEEAVKQAEKVFKEAKAQGADLVLHIFLEGFSVEEVEELAKKVKELAKKYGLKNATIILHVDANEEEADKIIKAADEAGVRAVVALLEP
B9: GBRAP_52_5971 (protein)
chain: MLERARELVREALELMEAGREEEAERLMEEVAETWDDEELRVLVEAVAELAAELDEERAELLLEMAIRAEDVLLRLGRDEALANDLVAAAARAAVAKRQA
B10: GBRAP_11_2883 (protein)
chain: KKEKLKELAELAQQLADTTDALLAAGTDDAALRAQLTALLDKLAELTAKYADEASKKLVEIAKEEWAKAQADPANAAAHLQNLRATARVLAGQYLLELEE
B11: GBRAP_11_2718 (protein)
chain: RKEKLEELAKEAEELAKEVEKLIEEGPKPEELKELAKRVEELARKAKEAGVDEDIVETLEIAAEELKKAIEDPETVVEHLERAAAALRVAAGDLLLEAEE
B12: GBRAP_160_4061 (protein)
chain: SESLERLLKDVEEARERILEVLREEGAEAAIVMAAGEYGAVIMEAAEDENASDELVDDLAEVRDRLVAELEANRDASREELERIIERHAEEAKEIIKKHF
B13: GBRAP_184_5107 (protein)
chain: KTLVVTVEAATLEEARAQLRAAVAEAAAAGADLVVLLSLEGFSGEELVALVREFGEAARAAGVPRVTLGITNDLDEETVDRLVAVADELGVALVLAIPDK
B14: GBRAP_160_4588 (protein)
chain: MESLEKMKEIVREELEEAKEMIVGETAEQRATIVLGAGGEIVMELSENPEASDELEDEVLKIADEAADTILANPNITEEEFNALLDEMEKKMIEAIEKHL
B15: GBRAP_184_5320 (protein)
chain: KVIHKVIEVETEEEAIEKLEEVKKEAKETGEKYLVVVEIKNATEKKIEAIAEKIKEMKEEGLPIEVIVELLDEVDEELTDFAVEKMEEAGAKVVISLKDE
B16: GBRAP_128_3386 (protein)
chain: SQEEKLKEAKELIDKIVEADVETARVLTEELMELLKTLSLEDQEKVIEYFKSKLPELTAEKLDVVADVLREKRPEFDPESQNLIADAEVEALNAAEEKEE
B17: GBRAP_9_7152 (protein)
chain: MEELLEKVEEVIEDAFEEIKLVVPEEVKPLVDELREKAKERFEELRKDPNVTEEQIVEEAKKILEELEEELSKKVSPEIKKIVRAIVDTAKLEIEELREE
B18: GBRAP_11_2760 (protein)
chain: MKEKYLELAELAEEAAELVDKLLEEGVDNEELREELREKLKELKEKVEEIGDEALIKEVEIAEELFKEMEEDPENAEKYAKELRAALRVLAGQFLLEAEE
B19: GBRAP_153_3947 (protein)
chain: EEERKEKLEKAKKLIEKIKKSKDPTKYIKELAKLLSELNLEDKLEVAKEFNKLSEETVYKIFKTLATEEGFSVEELLELTTELNEEQQAAALKAIVDSQK
B20: GBRAP_35_5540 (protein)
chain: DADTTIAEMLVNTMEDLVLALPDVDDETKITLTNHLIRLAEDLVELKPKDVELIKRAIEVLERAIEIIEESDLPEETREELIERLEELREKLEEILKENE
B21: GBRAP_117_2594 (protein)
chain: SATLEEVRKRVEELVERIRKALEEMKTLSEEERKRLREELLEEATKEVKEMLKLTDAETVEEFFAEALADLSPEERVEAYIIFEEALADAEDELKEEEEA
B22: GBRAP_16_4993 (protein)
chain: DELLNKVEGILEFVEDVADAFKDIDKETAKLAKEAAEKLKKAAKLIKEGGPKEEVLKELEEAAKILKEAAKRYAKKDPEAAAIFETLLREVERAIKLAKE
B23: GBRAP_52_6088 (protein)
chain: SAAKLEKYADELLAAAVAGDLEKATALVKKLIEELTDEEVLEAFARLAKKIAALPPEERERALDVALEALSRAADETGKEELMDLAMARLAAEAHAAELA
B24: GBRAP_137_3611 (protein)
chain: KKITITFSEEDGVAFAEIEADESVDHEKLLELVEKVAEETGAKVVIAYSDENKELIIYLVGDRETIVKAVRKLIKRLKEELGAEVELRSDGAEDLVEAVK
B25: GBRAP_48_5828 (protein)
chain: MVLDLEKLRELVEETVEEMKELYEEAKEEGLSREDILKMVKAELGDLALELEEAGYTKAADYLLEKENRDKLAKKLVELLEEGKVEEAEKYLFEELLKAE
B26: GBRAP_186_5391 (protein)
chain: EEEEEEEEKLLKELEKEYDIVIVVYLDEKKSLEEKKKIMENDVKAAEALAKETGKKVAVLFRVTANEEELEELKKYAEELDKEAKEKSGVGVKLFGKKKK
B27: GBRAP_160_4776 (protein)
chain: SEKEEKLKKKIKEAKEEILESIDTLSPEETLTVAIGETGDIIMEAEELEFDNEELLDSIDEIMDELIEELEKNKNASPEEKKKIVEEKFEKLLKELEKLT
B28: GBRAP_160_3999 (protein)
chain: MEELEKLKKEIKEIFEETKKEMEGLTPEERLTLVKGMAGEVIQLVFESPAVSEETEDEIAELMDELVERVEANKDKPLEVFYELLDETLKKIFEILDKDE
B29: GBRAP_128_3399 (protein)
chain: SQEEKLEKAKELIDKIVEADVEEARKYARELVELLKEMDLETREKVAEYLEEKLPELTAEKLDVLADVLRENRPKDDPELANIVADMEVEALNEAEEKEE

biological target: GABARAP, O95166; experiment: median log2 fold change of GCK-ALFA target abundance (FLAG IP / Myc IP barcode read proportion) (log2 ratio); each designed protein is fused to an ALFA-tag nanobody in HEK293 cells to bring the named protein to FLAG-tagged glucokinase (GCK); Myc marks an untargeted standard; higher = target protein stabilised (more abundant); details: target protein: 3xFLAG-MCP-GCK-ALFA reporter; HEK293 landing pad (RPLP)
Summary of the method: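 An ALFA-nanobody-fused binder library was recombined into HEK293 landing-pad cells and induced with 2 μg mL^−1 doxycycline. Cells were transfected with a plasmid expressing a FLAG-tagged target and a Myc-tagged standard. After 48 h, lysates underwent anti-FLAG and anti-Myc immunoprecipitation, and circular RNA barcodes were reverse transcribed, amplified and sequenced. Target abundance is the per-binder median log2 ratio of FLAG to Myc barcode read proportions. Barcodes needed ≥10^−7 proportion in both replicates, binders ≥3 barcodes per replicate, and a 10^−6 pseudocount was added; the two replicates were pooled.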

Chain of GABARAP, O95166 (O95166 whole entry, the tested form may be a part): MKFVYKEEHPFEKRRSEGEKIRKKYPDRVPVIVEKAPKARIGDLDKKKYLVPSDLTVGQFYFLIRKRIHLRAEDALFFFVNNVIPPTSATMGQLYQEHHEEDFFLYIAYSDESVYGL

In order of falling “median log2 fold change” value:
1. B26  0.615
2. B3  0.435
3. B10  0.336
4. B16  0.268
5. B23  0.221
6. B2  0.204
7. B11  0.201
8. B15  0.193
9. B5  0.19
10. B21  0.152
11. B17  0.149
12. B18  0.142
13. B12  0.104
14. B19  0.0929
15. B25  0.0841
16. B4  0.0653
17. B9  0.0201
18. B27  0.018
19. B29  0.00948
20. B20  -0.0575
21. B7  -0.0583
22. B8  -0.0639
23. B1  -0.0672
24. B22  -0.0973
25. B24  -0.109
26. B13  -0.131
27. B6  -0.158
28. B28  -0.162
29. B14  -0.211
